# Data from a collection of fitness landscapes (doi:10.1126/science.1257360).
# Some of the results follow.
# B1: PhoQ; a variant is named by its letters at X, in order, P23837 (parent)
# chain: MKKLLRLFFPLSLRVRFLLATAAVVLVLSLAYGMVALIGYSVSFDKTTFRLLRGESNLFYTLAKWENNKLHVELPENIDKQSPTMTLIYDENGQLLWAQRDVPWLMKMIQPDWLKSNGFHEIEADVNDTSLLLSGDHSIQQQLQEVREDDDDAEMTHSVAVNVYPATSRMPKLTIVVVDTIPVELKSSYMVWSWFIYVLSANLLLVIPLLWVAAWWSLRPIEALAKEVRELEEHNRELLNPATTRELTSLVRNLNRLLKSERERYDKYRTTLTDLTHSLKTPLXXLQXXLRSLRSEKMSVSDAEPVMLEQISRISQQIGYYLHRASMRGGTLLSRELHPVAPLLDNLTSALNKVYQRKGVNISLDISPEISFVGEQNDFVEVMGNVLDNACKYCLEFVEISARQTDEHLYIVVEDDGPGIPLSKREVIFDRGQRVDTLRPGQGVGLAVAREITEQYEGKIVAGESMLGGARMEVIFGRQHSAPKDE
# Variants of: B1
# Assay: enrichment ratio after two sorts for PhoP signalling (ratio (wild type AVST 3.29)); higher = more functional
# Details: with PhoP (E. coli)
row,Variant,enrichment ratio
1,ACPG,≤ 0.25
2,WIMI,≤ 0.25
3,KFTQ,≤ 0.25
4,EIVG,≤ 0.25
5,YDHQ,≤ 0.25
6,TWTR,≤ 0.25
7,GTDM,≤ 0.25
8,THET,≤ 0.25
9,RRPK,≤ 0.25
10,LNIM,≤ 0.25
11,HDNH,≤ 0.25
12,VSWQ,0.83
13,MQIW,≤ 0.25
14,YTNV,≤ 0.25
15,GLGH,≤ 0.25
16,MRGL,0.632
17,EMNF,≤ 0.25
18,YCQY,≤ 0.25
19,RVRY,≤ 0.25
20,NLWL,≤ 0.25
21,HPLW,≤ 0.25
22,MLWY,≤ 0.25
23,SYRA,≤ 0.25
24,MSSK,≤ 0.25
25,GQGR,≤ 0.25
26,DQRE,≤ 0.25

row,Variant,enrichment ratio
1,PWLL,≤ 0.25
2,DLPM,≤ 0.25
3,FTYC,≤ 0.25
4,GNHH,≤ 0.25
5,DTLV,≤ 0.25
6,WHVK,≤ 0.25
7,SHWH,≤ 0.25
8,VFRE,≤ 0.25
9,KYML,≤ 0.25
10,TIYH,≤ 0.25
11,IGMN,≤ 0.25
12,MCLY,≤ 0.25
13,EWTQ,≤ 0.25
14,NHKE,≤ 0.25
15,PKPF,≤ 0.25
16,YRAG,≤ 0.25
17,WHFS,≤ 0.25
18,KYPN,≤ 0.25
19,FNQE,≤ 0.25
20,EGLT,≤ 0.25
21,SVWK,≤ 0.25
22,SVYE,≤ 0.25
23,YWVV,≤ 0.25
24,ICIL,≤ 0.25
25,ISRL,≤ 0.25
26,VSAQ,≤ 0.25

row,Variant,enrichment ratio
1,GWFC,≤ 0.25
2,NCNY,≤ 0.25
3,MCRM,≤ 0.25
4,AWRD,≤ 0.25
5,ILQL,≤ 0.25
6,EAPL,≤ 0.25
7,WKAI,≤ 0.25
8,NKIQ,≤ 0.25
9,WILP,≤ 0.25
10,VVAR,≤ 0.25
11,PHMI,≤ 0.25
12,HPQY,≤ 0.25
13,YCGW,≤ 0.25
14,VWRD,≤ 0.25
15,PAFL,≤ 0.25
16,ISNA,≤ 0.25
17,FCPA,≤ 0.25
18,PYSL,≤ 0.25
19,KNRH,≤ 0.25
20,PRKF,≤ 0.25
21,KAMP,≤ 0.25
22,DSDY,≤ 0.25
23,YDAF,≤ 0.25
24,WAWS,≤ 0.25
25,IKGC,≤ 0.25
26,SWPA,≤ 0.25

row,Variant,enrichment ratio
1,EQWP,≤ 0.25
2,NQSN,≤ 0.25
3,LARA,≤ 0.25
4,IRLT,≤ 0.25
5,DNWG,≤ 0.25
6,NGTI,≤ 0.25
7,SFPM,≤ 0.25
8,QGLT,7.33
9,IEKS,≤ 0.25
10,TTGR,≤ 0.25
11,SDVA,≤ 0.25
12,KRTI,≤ 0.25
13,YHLY,≤ 0.25
14,CICV,0.57
15,ALFW,≤ 0.25
16,PIPT,≤ 0.25
17,SAKW,≤ 0.25
18,STCD,6.22
19,EMTP,≤ 0.25
20,MGYA,≤ 0.25
21,NASN,≤ 0.25
22,PPRI,≤ 0.25
23,QMEW,≤ 0.25
24,NTKM,≤ 0.25
25,TWRM,≤ 0.25
26,VNCY,6.95

row,Variant,enrichment ratio
1,TPDF,≤ 0.25
2,LIFS,≤ 0.25
3,KGDL,≤ 0.25
4,NFEP,≤ 0.25
5,VPGY,≤ 0.25
6,RINT,≤ 0.25
7,GCKF,≤ 0.25
8,GLTI,11.7
9,WWCL,≤ 0.25
10,CCSL,≤ 0.25
11,PRPK,≤ 0.25
12,QPYQ,≤ 0.25
13,IWRR,≤ 0.25
14,TYVK,≤ 0.25
15,KTKG,≤ 0.25
16,QVLI,≤ 0.25
17,AKPN,≤ 0.25
18,RHKE,≤ 0.25
19,LSLS,≤ 0.25
20,KVKP,≤ 0.25
21,SGGL,6.41
22,SSFF,5.98
23,AWEQ,≤ 0.25
24,ASCQ,4.02
25,LNSK,≤ 0.25
26,TDCE,≤ 0.25

row,Variant,enrichment ratio
1,HLGW,≤ 0.25
2,NGVK,≤ 0.25
3,WMCG,≤ 0.25
4,DVWD,≤ 0.25
5,TQLF,9.47
6,KHYS,≤ 0.25
7,TISF,5.1
8,STCQ,15.3
9,HERR,≤ 0.25
10,HDSS,≤ 0.25
11,DYHC,≤ 0.25
12,LFWA,≤ 0.25
13,VNDV,≤ 0.25
14,FMYH,≤ 0.25
15,VAEV,≤ 0.25
16,VCGQ,≤ 0.25
17,VCDN,≤ 0.25
18,IHRH,≤ 0.25
19,ITTS,≤ 0.25
20,VFVV,≤ 0.25
21,ILYK,≤ 0.25
22,FLRY,≤ 0.25
23,GPWV,≤ 0.25
